The other results are listed elsewhere or left out. These are noisy estimates, calculated here from bound and input reads.

The target of the assay is T1, Pho4 (S. cerevisiae) (UniProt P07270).
T1 sequence: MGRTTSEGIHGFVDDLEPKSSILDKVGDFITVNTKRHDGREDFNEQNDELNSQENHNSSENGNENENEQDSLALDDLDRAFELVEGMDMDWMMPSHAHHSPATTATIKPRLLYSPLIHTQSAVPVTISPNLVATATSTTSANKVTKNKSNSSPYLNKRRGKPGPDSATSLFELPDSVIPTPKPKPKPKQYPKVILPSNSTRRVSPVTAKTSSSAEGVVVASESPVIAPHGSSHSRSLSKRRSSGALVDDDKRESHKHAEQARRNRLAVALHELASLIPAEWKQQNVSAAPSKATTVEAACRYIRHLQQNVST
Nature of the assay: relative binding free energy (BET-seq); higher = weaker binding. As to conditions: reference: library average.
Take ACTGGCACGTGTCAGT: the “relative binding free energy” value came to 0.1 kcal/mol.
In the case of TGGAGCACGTGGGGGC, the “relative binding free energy” value is -0.15 kcal/mol.
For TAGTCCACGTGTCTGG the value was 0.03 kcal/mol.
In the case of GTACGCACGTGTTTTG it was -0.04 kcal/mol.
Take TCATGCACGTGGCTGG: the “relative binding free energy” value is -0.14 kcal/mol.
For ACAGTCACGTGGAGGA the value was 0.1 kcal/mol.
For TAGGGCACGTGTGGAA the value was -0.02 kcal/mol.
In the case of TAGTTCACGTGAATGT it was 0.4 kcal/mol; in that of TTTGGCACGTGAGTCG, 0.04 kcal/mol.
As to TGTTACACGTGGGGTT, the “relative binding free energy” value was 0.02 kcal/mol.
For GCTGCCACGTGGGGAG the value was -0.2 kcal/mol.
Take TGTGGCACGTGAGCAT: the “relative binding free energy” value came to 0.09 kcal/mol.
On to GATGTCACGTGGTTTG, for which the “relative binding free energy” value was 0.25 kcal/mol.
Consider GAGTTCACGTGTATCG, for which the “relative binding free energy” value was found to be 0.32 kcal/mol.
For GGGGTCACGTGAAAAT the value was 0.49 kcal/mol; for ATTACCACGTGGGTTT, -0.15 kcal/mol.
In the case of TGAGGCACGTGGGCGA, the “relative binding free energy” value was -0.36 kcal/mol.
Consider GCTGTCACGTGGTCTT, for which the “relative binding free energy” value was 0.08 kcal/mol.
For GGGTCCACGTGGTTTA, the “relative binding free energy” value is -0.14 kcal/mol.
In the case of ACTGGCACGTGTGGTA it was -0.02 kcal/mol; in that of GGTTTCACGTGCTGGC, 0.39 kcal/mol; in that of CAGGGCACGTGGGAAT, -0.11 kcal/mol.
In the case of AACATCACGTGTAGGT it was 0.15 kcal/mol; in that of TGTATCACGTGTGACG, 0.34 kcal/mol; in that of GAGGGCACGTGCCTGG, -0.1 kcal/mol.
Take TTTTACACGTGTATTG: the “relative binding free energy” value was 0.18 kcal/mol.
Take CTGTGCACGTGGCTTG: the “relative binding free energy” value is -0.18 kcal/mol.
Consider GTATACACGTGTTTTG, for which the “relative binding free energy” value was -0.03 kcal/mol.
Take GGGAGCACGTGGCTTA: the “relative binding free energy” value is -0.11 kcal/mol.
AGGTACACGTGAGTAT: the “relative binding free energy” value stood at 0.28 kcal/mol.
For the sequence ATGTTCACGTGCTCTT, the “relative binding free energy” value is 0.25 kcal/mol.
In the case of AAGGTCACGTGTGTGA it was 0.21 kcal/mol; in that of GTGGTCACGTGTCGGG, 0.3 kcal/mol; in that of GTGCGCACGTGAAGGA, 0.23 kcal/mol.
In the case of TGGGTCACGTGGTCTG it was 0.08 kcal/mol; in that of AGAGTCACGTGGGACT, 0.15 kcal/mol; in that of CGAATCACGTGATTGT, 0.34 kcal/mol.
In the case of GGGGGCACGTGTGGAA, the “relative binding free energy” value is -0.05 kcal/mol.
Turning to ATGGACACGTGTAATT, the “relative binding free energy” value was 0.16 kcal/mol.
In the case of TATTGCACGTGAGAAG it was 0.06 kcal/mol.
In the case of TTTTGCACGTGATCTT it was 0.03 kcal/mol; in that of TTGTTCACGTGTACAA, 0.29 kcal/mol; in that of TTATACACGTGTTGAA, 0.03 kcal/mol.
As to GTTAGCACGTGTTGAC, the “relative binding free energy” value came out at 0.05 kcal/mol.
In the case of AGAGCCACGTGGTGGG it was -0.14 kcal/mol; in that of AGCTTCACGTGAGGTA, 0.44 kcal/mol; in that of GTGTGCACGTGGGAGA, -0.07 kcal/mol.
In the case of ATGGTCACGTGTGCTA it was 0.05 kcal/mol; in that of TTAGTCACGTGAGGGC, 0.29 kcal/mol; in that of TATCTCACGTGAGTTA, 0.5 kcal/mol.
In the case of GTGTGCACGTGCGTGA it was -0.14 kcal/mol; in that of TTGCACACGTGTGCGG, 0.04 kcal/mol; in that of CGGTGCACGTGCGGTT, -0.01 kcal/mol.
Take GGGAACACGTGTGAGG: the “relative binding free energy” value amounted to 0.17 kcal/mol.
Turning to GAAGGCACGTGAGCGG, the “relative binding free energy” value came out at 0.02 kcal/mol.
Take TGAGGCACGTGGCAGA: the “relative binding free energy” value is -0.11 kcal/mol.
On to TCTGTCACGTGGGCAT, for which the “relative binding free energy” value was -0.01 kcal/mol.
On to ATATACACGTGGTGCT, for which the “relative binding free energy” value is -0.1 kcal/mol.
As to TGTGACACGTGATGGG, the “relative binding free energy” value was 0.04 kcal/mol.
In the case of TGTGGCACGTGATGAG it was 0.03 kcal/mol.
As to GTATGCACGTGTGTTG, the “relative binding free energy” value stood at 0.02 kcal/mol.
Consider TACATCACGTGGTATG, for which the “relative binding free energy” value is 0.02 kcal/mol.
With GGTTTCACGTGGTTCG, the “relative binding free energy” value amounted to 0.41 kcal/mol.
For GGGGACACGTGCCGGT the value was -0.2 kcal/mol.
As for TTTACCACGTGTTTGT, the “relative binding free energy” value is -0.1 kcal/mol.
For TTATACACGTGGTAGC the value was -0.06 kcal/mol.
Take TAATTCACGTGGCTTT: the “relative binding free energy” value amounted to 0.32 kcal/mol.
For AGGGGCACGTGCACTG the value was -0.2 kcal/mol; for TTTGCCACGTGGAGTG, -0.15 kcal/mol; for ATAATCACGTGTACTT, 0.21 kcal/mol.
As to ATATCCACGTGTTGGT, the “relative binding free energy” value stood at 0 kcal/mol.
For the sequence TGTGGCACGTGGGTCT, the “relative binding free energy” value was -0.18 kcal/mol.
In the case of CTTTTCACGTGGAGGT it was 0.18 kcal/mol.
In the case of CGATTCACGTGTTAAT it was 0.32 kcal/mol.
For ACTGTCACGTGTTCGT the value was 0.24 kcal/mol.
For TTATACACGTGCTGTT, the “relative binding free energy” value was found to be 0.01 kcal/mol.
TAAGTCACGTGGCGAG: the “relative binding free energy” value is -0.02 kcal/mol.
For AGGATCACGTGATTAG the value was 0.37 kcal/mol; for TGCATCACGTGGTGGC, 0.07 kcal/mol.
GTTTGCACGTGTTGTA: the “relative binding free energy” value stood at 0.1 kcal/mol.
For TGTGTCACGTGAACAG the value was 0.21 kcal/mol; for GTGTCCACGTGAAGGG, 0.31 kcal/mol.
For CGGGACACGTGGGCTA the value was -0.01 kcal/mol.
CGTAACACGTGTGTTA: the “relative binding free energy” value is -0.06 kcal/mol.
In the case of TATGTCACGTGTTCGA it was 0.05 kcal/mol; in that of CTGTCCACGTGCTGGG, 0.06 kcal/mol.
For the sequence ATAAACACGTGAGTGG, the “relative binding free energy” value was found to be 0.3 kcal/mol.
In the case of CGTGCCACGTGGGTGG it was -0.3 kcal/mol.
With CGGGTCACGTGTCGAG, the “relative binding free energy” value turned out to be 0.04 kcal/mol.
In the case of GGGATCACGTGTGGAT it was 0.2 kcal/mol; in that of TTTCACACGTGGAGTG, 0.22 kcal/mol.
In the case of CGATTCACGTGGGGTG it was 0.26 kcal/mol; in that of TTTGTCACGTGTAGTA, 0.24 kcal/mol.
CGTAGCACGTGGGTTT: the “relative binding free energy” value was -0.26 kcal/mol.
In the case of TAGTGCACGTGCTCTT it was -0.05 kcal/mol; in that of ATACTCACGTGATGGG, 0.13 kcal/mol; in that of GGGAGCACGTGTATAA, -0.04 kcal/mol.
For GGGGCCACGTGTATGG, the “relative binding free energy” value was -0.05 kcal/mol.
In the case of TGGGACACGTGAAGGA it was 0.3 kcal/mol; in that of AGGTTCACGTGAGTGA, 0.31 kcal/mol; in that of GCGTGCACGTGTTTAG, -0.02 kcal/mol.
Turning to GGTATCACGTGCATGA, the “relative binding free energy” value is 0.24 kcal/mol.
In the case of GTTTACACGTGGCGAG it was 0.03 kcal/mol; in that of CGGAGCACGTGCGGGT, -0.21 kcal/mol; in that of GTGCACACGTGAGAGT, 0.51 kcal/mol.
Regarding ATGAACACGTGATTGT, the “relative binding free energy” value was 0.15 kcal/mol.
Turning to ATCGTCACGTGTTCGG, the “relative binding free energy” value was 0.11 kcal/mol.
With TGTGCCACGTGCTGTT, the “relative binding free energy” value was -0.24 kcal/mol.
TTTGCCACGTGGATTT: the “relative binding free energy” value came out at 0.03 kcal/mol.
For GAGTTCACGTGGGAAA the value was 0.31 kcal/mol; for TTGTGCACGTGGACCG, -0.03 kcal/mol; for GTGTTCACGTGTGCCG, 0.19 kcal/mol.
Turning to AGGGGCACGTGACGAT, the “relative binding free energy” value turned out to be 0.05 kcal/mol.
For TATTTCACGTGGAGGG the value was 0.28 kcal/mol; for GTGCGCACGTGAAGAG, 0.33 kcal/mol; for GGAGTCACGTGTTGAG, 0.18 kcal/mol.
TAATTCACGTGGGAAA: the “relative binding free energy” value was 0.3 kcal/mol.
In the case of AAGCGCACGTGATGGT it was 0.16 kcal/mol; in that of CGTGACACGTGATAGG, 0 kcal/mol.
With AGTATCACGTGTCTTG, the “relative binding free energy” value worked out at 0.14 kcal/mol.
In the case of ATATACACGTGTCTTG it was 0 kcal/mol; in that of AGTAGCACGTGGGGGA, -0.18 kcal/mol.
With AAAGCCACGTGTAGGG, the “relative binding free energy” value was -0.11 kcal/mol.
For TCGTGCACGTGTCGAT the value was 0.09 kcal/mol; for GGCTTCACGTGGTGGA, 0.22 kcal/mol.
Take TCGTTCACGTGTTTTC: the “relative binding free energy” value turned out to be 0.27 kcal/mol.
Take CGGTTCACGTGTGATG: the “relative binding free energy” value worked out at 0.29 kcal/mol.
Regarding ACGTTCACGTGTATAT, the “relative binding free energy” value was 0.2 kcal/mol.
In the case of GAATGCACGTGTTTGG it was 0.23 kcal/mol; in that of CAAAACACGTGAGGGT, 0.31 kcal/mol; in that of CGTGGCACGTGGGATT, -0.17 kcal/mol.
For AGTTTCACGTGAAGGC, the “relative binding free energy” value came to 0.36 kcal/mol.
For the sequence CATTTCACGTGTCGTG, the “relative binding free energy” value is 0.29 kcal/mol.
Take GCGTGCACGTGGTCTT: the “relative binding free energy” value was -0.05 kcal/mol.
For TATTGCACGTGTGAAA the value was -0.01 kcal/mol; for GTTTGCACGTGTAACG, 0.26 kcal/mol.
Take CTGGGCACGTGCGTTG: the “relative binding free energy” value was -0.09 kcal/mol.
As for TGAGCCACGTGTTTGT, the “relative binding free energy” value was -0.14 kcal/mol.
In the case of GGTAACACGTGTGGCT, the “relative binding free energy” value amounted to 0.07 kcal/mol.
Turning to TTTTGCACGTGGATCA, the “relative binding free energy” value was determined as 0.04 kcal/mol.
In the case of GAGGGCACGTGAGTGA it was 0.25 kcal/mol; in that of GGTTACACGTGTGTTG, 0.12 kcal/mol; in that of GGGAGCACGTGGATGT, -0.01 kcal/mol.
For GTTTACACGTGGTTGC the value was 0.18 kcal/mol; for TGTGTCACGTGTCTCG, 0.02 kcal/mol.
As to AGAGACACGTGGGGGT, the “relative binding free energy” value was -0.18 kcal/mol.

The record behind these values is the BET-seq Pho4 binding data (Le et al. 2018).
